Experimental data as given in PubChem BioAssay AID1645882 (National Center for Advancing Translational Sciences (NCATS), 2021).
Hit rate of the full screen: of about 16,000 compounds, about 120 (0.75%) were called active. Not shown: some 4% with an inconclusive outcome. Calls come from the whole dose curve; as a rule, active = well fitted inhibition curve with a large enough effect; inconclusive = small, poorly fitted or top-dose-only effect; inactive = no such curve, though single readings can be large or run the other way. The list shows a part of the results.

These molecules were tested against Rap guanine nucleotide exchange factor 3 (Homo sapiens) (UniProt O95398) (assay: Validation qHTS for antagonist of cAMP-regulated guanine nucleotide exchange factor 3 (EPAC1)). Conditions: EPAC1 Rap1B-BODIPY-GDP exchange, fluorescence; series mostly up to 150 µM; activity change, negative = inhibition: at the top concentration.
In short: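 Nucleotide exchange followed as fluorescence loss when BODIPY-GDP leaves Rap1B (480 nm excitation, 540 nm emission), read at 5 min intervals over 30 min. Reaction: 100 nM EPAC1, 250 nM RAP1B-BODIPY-GDP, 50 uM GDP; ATA and DMSO define normalization.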
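Note: plate controls were DMSO for no effect and ATA control for full effect; nearly all actives have a fitted effect of over 75% in size.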

Sequence of UniProt O95398 (O95398 whole entry, looked up): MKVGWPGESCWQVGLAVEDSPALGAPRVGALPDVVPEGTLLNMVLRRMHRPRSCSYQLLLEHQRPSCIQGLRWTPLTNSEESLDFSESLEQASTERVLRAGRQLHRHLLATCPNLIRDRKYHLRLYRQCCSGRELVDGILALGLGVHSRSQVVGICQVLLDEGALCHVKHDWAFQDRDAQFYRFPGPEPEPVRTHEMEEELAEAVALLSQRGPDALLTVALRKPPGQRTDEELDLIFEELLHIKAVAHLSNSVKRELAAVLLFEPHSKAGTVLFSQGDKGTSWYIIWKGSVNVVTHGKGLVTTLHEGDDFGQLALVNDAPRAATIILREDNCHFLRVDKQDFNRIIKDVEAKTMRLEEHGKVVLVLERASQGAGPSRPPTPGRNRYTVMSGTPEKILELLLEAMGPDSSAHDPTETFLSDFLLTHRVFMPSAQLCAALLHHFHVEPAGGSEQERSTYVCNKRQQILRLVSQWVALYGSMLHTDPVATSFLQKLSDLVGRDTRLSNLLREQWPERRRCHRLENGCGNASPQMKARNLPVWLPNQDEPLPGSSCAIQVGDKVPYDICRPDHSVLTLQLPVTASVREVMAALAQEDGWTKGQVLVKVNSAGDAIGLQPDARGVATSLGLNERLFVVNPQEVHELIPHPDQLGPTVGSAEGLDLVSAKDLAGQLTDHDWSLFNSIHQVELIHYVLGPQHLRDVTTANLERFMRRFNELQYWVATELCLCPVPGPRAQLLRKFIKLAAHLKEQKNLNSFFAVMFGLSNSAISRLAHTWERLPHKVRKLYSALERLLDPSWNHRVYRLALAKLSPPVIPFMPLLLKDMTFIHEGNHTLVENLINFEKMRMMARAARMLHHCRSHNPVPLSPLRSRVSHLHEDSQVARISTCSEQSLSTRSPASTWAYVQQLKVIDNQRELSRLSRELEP

Activity change, negative = inhibition, inactive:
N[C@@H](CSS(=O)(=O)O)C(=O)O, CS(=O)(=O)Nc1cccc(-c2nccc(-n3ccnc3)n2)c1 22.7%, Cc1cnc(-n2ncc(C(=O)N(C)CCc3ccccn3)c2-c2cccs2)nc1-c1ccc(F)cc1 10.8%, COC1[C@H](OC(N)=O)C(O)[C@H](Oc2ccc3c(O)c(NC(=O)c4ccc(O)c(CC=C(C)C)c4)c(=O)oc3c2C)OC1(C)C (stereo partly specified) 10%, O=C(c1cccc(F)c1)N(Cc1cc2cc3c(cc2nc1N1CCOCC1)CCC3)CC1CCCO1 (stereo unspecified) 27.7%, COCCN1CCN(C(=O)c2cnn(-c3ncc4c(n3)-c3ccc(OC)cc3CC4)c2C2CC2)CC1 -11%, COc1ncc2ncc(=O)n(C)c2n1 12%, CCN(CC)c1ccc(/C=C/c2ccncc2)cc1 -25%, CN1CCN(c2cc(-c3ccccc3Cl)ncn2)CC1 11.2%, CC(C)CN1CCC(=O)N([C@H](COc2ccccc2)c2ccccc2)CC1 -12.3%, COc1cc(C)c2c(=O)cc(-c3ccccc3)oc2c1 1.18%, CC(C)NC(=O)N1CC[C@@]2(CCCN(C(=O)c3ccncc3)C2)C1 15.2%, COc1ccc(Cl)cc1N1C(=O)[C@@H]2C[C@H]1CN2Cc1nc2ccccc2nc1C 0.568%, CC(CCC(=O)O)C1CCC2C3C(O)C[C@@H]4CC(O)CC[C@@]4(C)C3CC[C@@]12C (stereo partly specified), CCNc1ncc2nc(-c3cc(F)cc(F)c3)c(=O)n(CCOC)c2n1 5.64%, Cn1c(=O)c2c(ncn2CC(O)CO)n(C)c1=O (stereo unspecified), C=CCCCCCCCCC(=O)OC 15.3%, COc1ccc(C(=O)N2CCC3(CC2)CCN(c2cccc(-c4ccccc4)c2)CC3)cc1 6.89%, COc1ccc(-c2nc3cnc(N4CCNCC4)nc3n(C3CC3)c2=O)cc1 13.9%, NCCC(=O)N[C@@H](Cc1cnc[nH]1)C(=O)O 9.17%, NC(=O)c1cccnc1 16.9%, CO/N=C(\C(=O)N[C@@H]1C(=O)N2C(C(=O)O)=C(COC(C)=O)CS[C@H]12)c1csc(N)n1 (stereo in doubt) 9.93%, Cc1cnc(CNc2cc(-c3cccc(NS(C)(=O)=O)c3)ncn2)cn1 3.6%, Cc1cccc(CNc2ncnc3ccc(-c4ccccc4CN(C)C)cc23)c1 26%, COc1cc(-c2cc(C)c3cccc(OC)c3n2)cc2c1OCCN(C(=O)CC1NC(=O)c3ccccc31)C2 (stereo unspecified) 13.2%, COc1ccc(-c2nc3cnc(OC)nc3n(CCc3ccccc3)c2=O)cc1 4.25%, Nc1nccs1 12.4%, NS(=O)(=O)c1cc2c(cc1Cl)N[C@@H]([C@@H]1C[C@@H]3C=C[C@H]1C3)NS2(=O)=O -3.09%, O=C(O)CCc1nc2ccccc2[nH]1 10.1%, C[N+]1(CC(=O)c2ccc(I)cc2)CCCc2ccccc21 (stereo unspecified) -7.84%, CC(C)(O)C#Cc1ccc(CN2CCc3nnc(CNC(=O)c4cccc(F)c4)n3CC2)cc1 2.11%, CCC(C)(CN(C)C)OC(=O)c1ccccc1 (stereo unspecified) 15.7% [at 75.8 µM], CC(=O)OC1CC[C@@]2(C)C(CC[C@@]3(C)C2CC=C2C4CC(C)(C)CC[C@]4(C(=O)O)CC[C@@]23C)C1(C)C (stereo partly specified) 14.1%, OC(c1ccc2c(c1)CN(Cc1cccc3nccnc13)CCO2)C1CCCCC1 (stereo unspecified) -0.294%, CCCc1nc(C)c2c(=O)[nH]c(-c3cc(S(=O)(=O)N4CCN(CC)CC4)ccc3OCC)nn12 17.5%, N#Cc1ccccc1-c1ccc2ncnc(NC3CC3)c2c1 5.12%, CC(Oc1ccccc1)C(=O)N[C@@H]1C(=O)N2[C@@H]1SC(C)(C)[C@@H]2C(=O)OCc1ccccc1 (stereo partly specified) -1.34%, C[N+]1(C)[C@@H]2CC(OC(=O)[C@H](CO)c3ccccc3)C[C@H]1[C@H]1O[C@@H]12 (stereo partly specified) -11.4%, COc1ccc(NC(=O)N2CCCC3(CCN(C(=O)c4c(C)noc4C)CC3)C2)cc1 17.5%, COc1cc(CN2CCc3nnc(C(NS(C)(=O)=O)C(C)C)n3CC2)ccc1F (stereo unspecified) 4.91%, COc1ccc(OC)c(CN2CCOc3ccc(C(O)c4cccnc4)cc3C2)c1 (stereo unspecified) 2.99%, CNC1(C)C2CCC(C2)C1(C)C (stereo unspecified), Cc1nc2cncnc2n(Cc2ccccc2Cl)c1=O 10.2%, NC(=O)C1(N2CCCCC2)CCN(CCCC(=O)c2ccc(F)cc2)CC1 13.6%, COCCn1c(=O)c(-c2cn(C)c3ccccc23)nc2cnc(OCc3ccccc3)nc21 9.75%, O=C(c1ccco1)N1CCC2(CC1)CCN(C(c1ccccc1)c1ccccc1)CC2 -3.06%, S=c1nc[nH]c2nc[nH]c12, CN(Cc1ccco1)c1nc(-c2cccc(C#N)c2)nc2ccccc12 13.2%, CS(=O)c1ccc(-c2nc(-c3ccc(F)cc3)c(-c3ccncc3)[nH]2)cc1 (stereo unspecified), CC(C)CN1CC[C@@]2(CCCN(C(=O)c3csnn3)C2)C1 23%, COCCn1c(=O)c(-c2ccc(F)cc2)nc2cncnc21 13.6%, CC(C)CN1CCC(=O)N(CCO)CC1 -21.2%, COc1cccc(Cn2c(=O)c(C)nc3cnc(N4CCNCC4)nc32)c1 24.7%, C=C1CCC2[C@](C)(CO)[C@H](O)CC[C@@]2(C)[C@@H]1C/C=C1/C(=O)OC[C@H]1O (stereo partly specified) 3.35%, COC(=O)C(O)C1C(C)(C)C(OC(C)=O)C2CC3=C4CC(=O)OC(c5ccoc5)[C@]4(C)CCC3[C@@]1(C)C2=O (stereo partly specified) 5.22%, CCCCCC1CCNCC1 17.2%, COc1ccc2[nH]cc(CCNc3ccnc(-c4ccccc4Cl)n3)c2c1 -28.5%, COCCn1c(=O)c(-c2ccc(F)cc2)nc2cnc(OCc3ccccc3)nc21 4.05%, COc1ccccc1-c1cncnc1Nc1ccccc1 7.54%, CNc1ccnc(-c2ccccc2C)n1 9.48%, O=S1(=O)CCOC[C@H](c2ccccc2)N1Cc1ccccc1F -18%, Cc1nn(-c2ccccc2)c(C)c1CC(=O)NCC1Cc2cc(-c3cncnc3)ccc2O1 (stereo unspecified) 22%, COc1ccc(-n2c(CNC(=O)c3ccc(OC)cc3OC)nnc2SC)cc1 -5.6%, N#Cc1cccc(NC(=O)N2CC3(CCN(C(=O)c4cc(C(F)(F)F)cc(C(F)(F)F)c4)CC3)C2)c1 -12.9%, Cc1c(C(=O)NCCc2ccncc2)cnn1-c1nccc(-c2ccccc2C(F)(F)F)n1 5.47%, Cc1oc(-c2ccccc2NC(=O)C2CCC2)nc1CNC(=O)c1ccccn1 4.5%
